In PMC8834197:
These are yes or no findings as the source states them, for the method shown. For some assays here: In cells and extracts the contact can be indirect. Some results given as binding are weak or reduced against the parent protein; the word gives no strength.

By UniProt entry, the sequences of proteins in these tests, tags left out. Where a name states a change or a piece, a line headed by the entry shows the natural chain unless it says otherwise. Residues count along the entry.
UniProt P48436: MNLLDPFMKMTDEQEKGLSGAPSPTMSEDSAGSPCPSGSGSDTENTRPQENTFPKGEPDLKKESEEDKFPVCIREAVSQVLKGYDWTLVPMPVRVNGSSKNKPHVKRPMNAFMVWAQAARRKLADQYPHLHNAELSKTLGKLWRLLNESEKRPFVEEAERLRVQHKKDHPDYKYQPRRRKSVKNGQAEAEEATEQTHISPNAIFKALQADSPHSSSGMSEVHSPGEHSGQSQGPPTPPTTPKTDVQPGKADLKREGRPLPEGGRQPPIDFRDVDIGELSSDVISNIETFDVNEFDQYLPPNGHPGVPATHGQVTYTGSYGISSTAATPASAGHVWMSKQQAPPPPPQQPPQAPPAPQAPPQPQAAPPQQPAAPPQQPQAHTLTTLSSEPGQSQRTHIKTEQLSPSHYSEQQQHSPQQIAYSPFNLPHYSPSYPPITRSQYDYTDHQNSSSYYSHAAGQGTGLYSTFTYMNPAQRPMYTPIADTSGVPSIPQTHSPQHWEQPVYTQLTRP
LexA-SOX9 truncated fragment Met1-Phe204: residues 1-204 of P48436
LexA-SOX9 truncated fragment Lys205-Ser386: residues 205-386 of P48436
LexA-SOX9 truncated fragment Ser387-Pro509: residues 387-509 of P48436
UniProt Q13546: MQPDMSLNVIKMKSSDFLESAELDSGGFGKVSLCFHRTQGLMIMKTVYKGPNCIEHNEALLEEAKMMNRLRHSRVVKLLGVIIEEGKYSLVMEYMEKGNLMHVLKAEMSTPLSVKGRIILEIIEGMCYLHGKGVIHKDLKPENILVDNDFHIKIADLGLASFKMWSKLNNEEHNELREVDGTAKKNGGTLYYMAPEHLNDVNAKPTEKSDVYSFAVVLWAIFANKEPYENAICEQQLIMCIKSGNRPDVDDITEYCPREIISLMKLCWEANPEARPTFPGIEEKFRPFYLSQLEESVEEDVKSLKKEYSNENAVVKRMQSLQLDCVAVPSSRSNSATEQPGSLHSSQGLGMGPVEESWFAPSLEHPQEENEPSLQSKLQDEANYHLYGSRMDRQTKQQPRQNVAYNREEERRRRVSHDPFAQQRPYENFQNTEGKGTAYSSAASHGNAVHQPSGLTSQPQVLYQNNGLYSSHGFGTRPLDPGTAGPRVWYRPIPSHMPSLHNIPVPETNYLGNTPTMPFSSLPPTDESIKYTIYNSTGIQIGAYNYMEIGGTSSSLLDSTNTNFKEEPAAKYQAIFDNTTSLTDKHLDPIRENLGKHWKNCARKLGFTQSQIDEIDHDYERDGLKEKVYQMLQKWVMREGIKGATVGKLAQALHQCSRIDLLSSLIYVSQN
B42-RIPK1 truncated motif Thr580-Asn671: residues 580-671 of Q13546

How the values were obtained:
[1] = target: LexA-SOX9 (full), human SOX9 in the pGilda/LexA bait vector (human) (UniProt P48436); assay: two-hybrid; LexA bait (pGilda) and B42 prey (pJG4-5) in EGY48 yeast; growth on medium lacking leucine with 2% galactose at 30 °C, X-gal and ONPG β-galactosidase analysis
[2] = target: LexA-SOX9 truncated fragment Lys205-Ser386 (human) (UniProt P48436); assay: as above
[3] = target: LexA-SOX9 truncated fragment Met1-Phe204 (human) (UniProt P48436); assay: as above
[4] = target: LexA-SOX9 truncated fragment Ser387-Pro509 (human) (UniProt P48436); assay: as above
[5] = target: endogenous SOX9 (human (endogenous in MDAH 2774 by the text, HEK 293 by the legend)) (UniProt P48436); assay: co-IP; endogenous proteins; entire cell lysates (RIPA buffer) incubated with anti-SOX9 or anti-RIPK1 antibody overnight at 4 °C, protein A/G agarose beads, immunoblot

Substance	binding [1]	binding [2]	binding [3]	binding [4]	binding [5]
B42-RIPK1 truncated motif Thr580-Asn671 (from UniProt Q13546-1 580-671) (domain or fragment)	binds	no binding	no binding	binds	
endogenous RIPK1 (from UniProt Q13546 1-671)					binds
